From paper PMC6919601, “Identification of Plasmodium dipeptidyl aminopeptidase allosteric inhibitors by high throughput screening” (PLoS ONE, 2019)
“And” between values parts separate entries of the source, which are not always exact repeats. Equal entries are not always repeated. Hit rate of the full screen: of about 110,000 compounds, about 230 (0.21%) showed an effect of 50% or more. The list shows a part of the results.

These molecules were tested against DPAP1 (Plasmodium falciparum, UniProt Q8IIJ9) (assay: primary screen, percent inhibition; read by cleavage of a fluorogenic dipeptide substrate; higher = more effect of the substance).
Set-up: species or system P. falciparum D10 trophozoite lysates; single well
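Also: 30 min substrate incubation versus DMSO and 10 µM JCP410 controls.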

Chain of DPAP1 (Q8IIJ9 whole entry, looked up): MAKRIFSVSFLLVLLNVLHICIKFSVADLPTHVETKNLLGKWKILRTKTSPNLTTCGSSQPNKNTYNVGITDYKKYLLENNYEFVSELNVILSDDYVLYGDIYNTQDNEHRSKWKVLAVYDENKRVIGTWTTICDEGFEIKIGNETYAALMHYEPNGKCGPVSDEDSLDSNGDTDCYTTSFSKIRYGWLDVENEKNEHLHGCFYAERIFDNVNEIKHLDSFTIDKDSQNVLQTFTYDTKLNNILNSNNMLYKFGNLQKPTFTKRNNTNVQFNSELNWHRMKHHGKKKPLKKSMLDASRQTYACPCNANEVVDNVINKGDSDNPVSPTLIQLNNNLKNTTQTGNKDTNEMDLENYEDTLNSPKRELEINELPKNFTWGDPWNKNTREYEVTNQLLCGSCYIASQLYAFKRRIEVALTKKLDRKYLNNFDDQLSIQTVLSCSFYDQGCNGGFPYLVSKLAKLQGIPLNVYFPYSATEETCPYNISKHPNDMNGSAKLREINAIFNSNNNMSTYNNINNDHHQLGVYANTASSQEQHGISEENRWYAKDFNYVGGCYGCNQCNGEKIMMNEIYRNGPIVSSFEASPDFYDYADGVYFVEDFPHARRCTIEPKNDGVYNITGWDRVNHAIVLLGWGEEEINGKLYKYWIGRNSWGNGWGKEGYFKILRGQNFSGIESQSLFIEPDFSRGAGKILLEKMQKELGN

Row | Structure (SMILES) | % Inhibition @ 10 uM
1 | COc1cc(OC)c(NC(=O)CC(O)(C(F)(F)F)C(F)(F)F)cc1Cl | -6.66%
2 | CC(=O)Nc1ccc(S(=O)(=O)NCc2cccnc2)cc1 | 3.8%
3 | O=S(=O)(Cc1ccccc1)CC1CC1(Cl)Cl (stereo not shown) | -5.51%
4 | Cc1cccc(NC(=O)c2ccc(Br)o2)c1C | -3.39%
5 | Cc1ccc(CNC(=O)CN(C)S(=O)(=O)c2c[nH]cn2)cc1 | -7.28%
6 | COc1cc(CN2CCN(C(=O)COc3ccccc3)CC2)cc(OC)c1OC | 8.6%
7 | Cn1nc(C(=O)N2CCC3(CC2)OCCO3)c2c1-c1ccccc1S(=O)(=O)C2 | 1.79%
8 | COc1ccc(C=C(C#N)C#N)c(OC)c1 | 1.7%
9 | CCCCNC(=O)c1sc2ccccc2c1Cl | -0.687%
10 | CCOc1ccc(C2C=C(c3ccc(C(C)C)cc3)Nc3nnnn32)cc1 (stereo not shown) | -1.69%
11 | CN(CCCc1ccco1)S(=O)(=O)c1ccc(-c2cc(C(F)(F)F)no2)s1 | 1.73%
12 | Cc1cc(C)c2oc(C(=O)Nc3nnc(CC(C)C)s3)cc(=O)c2c1 | 3.51%
13 | CC(=O)Nc1c(C(=O)N2CCCCCC2)cnn1-c1ccccc1Cl | -1.39%
14 | Cc1[nH]c2ccc(C(=O)NCCc3ccc(S(N)(=O)=O)cc3)cc2c1C | -2.65%
15 | C=CCN(c1ccccc1)S(=O)(=O)c1ccc(N2C(=O)c3ccccc3C2=O)cc1 | 2.92%
16 | Fc1ccc(N2CCN(Cc3cccc(Cl)c3)CC2)cc1 | -0.192%
17 | O=C1C(=Cc2c[nH]c3ccccc23)C(=O)N(c2ccccc2)C(=S)N1c1ccccc1 | 9.94%
18 | Cc1oc(-c2cccs2)nc1CSCC(=O)NCCc1ccccc1 | -2.85%
19 | CCOc1ccc(CCN2CNc3c(C(=O)OC)cnn3C2)cc1 | 0.66%
20 | Cn1cc(NC(=O)N2CC=C(c3ccccc3)CC2)c2ccccc2c1=O | 1.76%
21 | O=C(NCCc1ccccc1)C(=O)Nc1cccc(Cl)c1 | 3.15%
22 | CCOc1ccccc1Cn1c(=O)oc2ccc(C)cc21 | 0.446%
23 | CCCCNCCCOc1ccc([N+](=O)[O-])cc1 | -4.18%
24 | COc1ccc2ccccc2c1C1C(C(C)=O)=C(C)N=c2s/c(=C\c3ccc(O)cc3)c(=O)n21 (stereo not shown) | -3.98%
25 | COc1cc2nc(SCC(=O)NCC3CCCO3)n3nc(-c4ccccc4)nc3c2cc1OC (stereo not shown) | 1.23%
26 | COc1cc2nc(N3CCN(C(=O)C4COc5ccccc5O4)CC3)nc(N)c2cc1OC (stereo not shown) | 1.62%

Row | Structure (SMILES) | % Inhibition @ 10 uM
27 | CCC(C)NCc1c(C(=O)O)n(Cc2ccc(F)cc2Cl)c2ccccc12 (stereo not shown) | -8.92%
28 | O=C(Cn1cnc2ccccc21)c1ccc(Cl)cc1 | -5.92%
29 | CC1SC2(NC1=O)C1CC3CC2CC(O)(C3)C1 (stereo not shown) | -4.23%
30 | CCC(NC(=O)NC12CC3CC(CC(C3)C1)C2)c1c(-n2cccc2)sc2c1CCN(C)C2 (stereo not shown) | 2.47%
31 | COc1cccc(OC)c1C(=O)Nc1nccs1 | 2.92%
32 | Cc1cc(C)c(C)c(S(=O)(=O)NCC(=O)Nc2ccc(F)c(Cl)c2)c1C | 1.84%
33 | Cc1nc2nc(NC(=O)c3ccc(F)cc3)nn2c(O)c1Cl | -1.31%
34 | CN(CC(=O)O)S(=O)(=O)c1cccc2cccnc12 | 1.2%
35 | Cn1c(CSc2nc3ccccc3s2)nnc1SCC(=O)NCCO | -3.1%
36 | Clc1ccc2oc(-c3ccccc3)c/c(=N\CCN3CCOCC3)c2c1 | -2.98%
37 | Cn1c(SCC(=O)Nc2nc3ccccc3s2)nnc1-c1c[nH]c2ccccc12 | 0.44%
38 | COc1cc(C(=O)Nc2ncc(Cc3ccc(Cl)cc3)s2)cc(OC)c1OC | 2.94%
39 | CSc1ncc(Cl)c(C(=O)NCCc2ccc(S(N)(=O)=O)cc2)n1 | 0.569%
40 | O=C1CC(c2ccccc2)NC(=O)N1 (stereo not shown) | -2.86%
41 | CC(NC(=O)/C(CCCC#N)=N/O)c1ccccc1 (stereo not shown) | 0.00784%
42 | COc1ccc(-c2noc(-c3cc4cc(OC)ccc4oc3=O)n2)cc1 | -7.74%
43 | O=C(CSc1nc2c(sc3ccccc32)c(=O)n1CCCN1CCOCC1)c1ccccc1 | 5.74%
44 | CN(CC(=O)NCc1ccco1)S(=O)(=O)c1ccc2[nH]c3c(c2c1)CCCC3 | -3.6%
45 | Cc1cccc(NC(=O)Cn2nc(C(F)(F)F)cc2C2CC2)c1C | 1.59%
46 | O=C(CCC(=O)NC1CCCCC1)Nc1nc(-c2cc3ccccc3oc2=O)cs1 | 0.569%
47 | Cc1ccc(C(=O)c2ccc(O)cc2O)cc1 | -3.83%
48 | Cc1ccc(-c2nnc3sc(-c4cc5ccccc5o4)nn23)cc1 | -2.21%
49 | COc1ccc(Cn2c(C(=O)O)c(CNCc3ccc(C)cc3)c3ccc(C)cc32)cc1 | 3.47%
50 | CCCC(=O)NCCCc1nc2ccccc2n1Cc1ccccc1Cl | -0.551%
51 | CCN1CCN(Cc2cccc(Br)c2)CC1 | -1.93%
52 | O=C(NCC1CCCO1)c1cccc(Br)c1 (stereo not shown) | 1.26%

Row | Structure (SMILES) | % Inhibition @ 10 uM
53 | CCC(=O)c1c(O)ccc2c(C)cc(=O)oc12 | -1.46%
54 | COC(=O)C1=NNC(c2ccccc2)(c2ccccc2)C1 | 2.58%
55 | COC(=O)C1=CN(C)C=C(C(=O)OC)C1c1cc(OC)ccc1OC | 0.219%
56 | COc1ccc(CNC(=O)c2ccc(Br)cc2)cc1 | 0.215%
57 | Cn1c2ccccc2c2nn3c(S)nnc3nc21 | 0.884%
58 | OC1CCCN(CCc2ccccc2)C1 (stereo not shown) | 1.38%
59 | COc1ccc(OC)c(/C=C2\N=C(c3cccc(C)c3)OC2=O)c1 | 8.79%
60 | COC(=O)c1nc2n(n1)C(c1ccc(OC)c(OC)c1OC)C1=C(O)CCCC1=N2 (stereo not shown) | -3.37%
61 | Cc1nc(S)nc(O)c1CCO | 0.351%
62 | COc1ccc2c(c1)OCC/C2=N\OC(=O)c1ccccc1-c1ccccc1 | -1.92%
63 | Cc1ccc(C)n1-c1ccc(C(=O)O)c(Cl)c1 | -2.26%
64 | CCCc1ccc(-c2ccc(OC(F)F)cc2)nc1 | 1.4%
65 | COCc1cc(C)nc2sc(C(=O)N(c3ccccc3)c3ccccc3)c(N)c12 | 9.65%
66 | CCCCC1(C(c2ccccc2)c2ccccc2)C(=O)c2ccccc2C1=O | -3.79%
67 | COc1ccc(CNC2CCCC2)cc1C | -1.56%
68 | O=C1/C(=C\c2ccc(O)cc2)Sc2ccccc21 | -2.18%
69 | O=[N+]([O-])c1ccc2c(c1)Cc1cc(C3CC3)ccc1-2 | -2.51%
70 | N#C/C(=C\c1cc2c(cc1Br)OCO2)C(N)=O | -1.48%
71 | Cc1cccn2c(=O)c3cc(C(=O)NC(C)c4ccccc4)c(=N)n(Cc4ccco4)c3nc12 (stereo not shown) | -1.47%
72 | OCCN(Cc1ccccc1)Cc1c(Cl)cccc1Cl | -4.14%
73 | COc1ccc2c(oc(=O)c3ccccc32)c1C | -0.357%
74 | O=C(COc1ccccc1Cl)Nc1ccc2nn(-c3ccccc3)nc2c1 | -1.88%
75 | CN(CC(=O)N1CCN(Cc2ccccc2)CC1)S(=O)(=O)c1cccc2nsnc12 | -1.43%
76 | CCOC(=O)N1CCN(c2c(-c3ccc(C)cc3)c(=O)c2=O)CC1 | -2.57%
77 | CC(C)(CNC(=O)c1ccccc1F)CNC(=O)c1ccccc1F | 19.1%
78 | CN1C(=O)NC(c2ccccc2)c2cc(Cl)ccc21 (stereo not shown) | -1.96%

Row | Structure (SMILES) | % Inhibition @ 10 uM
79 | CC(C)C[C@H](NC(=O)c1ccccc1-c1ccccc1)C(=O)NCC#N | 16.9%
80 | O=C(O)c1ccc(CN2CCCCC2)o1 | -4.03% and -6.22%
81 | c1ccc(-c2cc(-c3ccccc3)n(-c3ccccc3)n2)cc1 | -6.99%
82 | O=C(NCC1CCCO1)c1ccc(CS(=O)(=O)c2ccc(Br)cc2)o1 (stereo not shown) | 2.14%
83 | O=c1c2ccccc2nc(/C=C\c2ccc(O)cc2)n1-c1ccc(O)cc1 | 3.81%
84 | CCCN1CCN(C(=O)Cn2ncc3c4ccccc4n(Cc4ccccc4F)c3c2=O)CC1 | 3.4%
85 | Cc1ccc(Cn2c(=O)c3cccnc3n(Cc3cccc(C(F)(F)F)c3)c2=O)cc1 | -3.44%
86 | CCOc1ccccc1C(=O)Nc1ccc(C(N)=O)cc1 | -1.32%
87 | COc1ccc(OC)c(N(CC(=O)NC(C)(C)C)S(C)(=O)=O)c1 | 2.02%
88 | Cc1ccc2c(Cl)c(C(=O)Nc3ccc(S(=O)(=O)Nc4ncccn4)cc3)sc2c1 | 2.38%
89 | CCC(=O)c1ccc(N2CCN(C(=O)c3ccccc3)CC2)c(F)c1 | -0.173%
90 | N#Cc1ccc(OCc2cccc3c2N=S=N3)cc1 | 0.145%
91 | O=C(N1CCCC1)C12CC3CCC(CC(C3)C1)C2 | 5.66%
92 | Oc1c(C(c2ccccn2)N2CCN(c3ccccc3F)CC2)ccc2cccnc12 (stereo not shown) | 0.709%
93 | COc1cc(/C=C2\C(=N)N3N=C(S(=O)(=O)CC(C)C)SC3=NC2=O)ccc1O | 0.208%
94 | COc1ccc(CNC(=O)C2CCC(CNS(=O)(=O)c3cccc4nsnc34)CC2)cc1 (stereo not shown) | 2.93%
95 | COc1cc(C(=O)NCCC(=O)NCc2cccs2)cc(OC)c1OC | -1.99%
96 | O=C(CN1CCCCCC1)c1ccccc1 | -1.96%
97 | CC(C)CSC(SCC(C)C)=C(C#N)C(=O)N1CCCC1 | 4.33%
98 | CC(C)NS(=O)(=O)c1cccnc1N1CCN(CCO)CC1 | -7.62%
99 | COc1cc(C(=O)O/N=C2/CCSc3ccccc32)cc(OC)c1OC | -1.4%
100 | CCC1CCC(N(C)CCN(CC)CC)CC1 (stereo not shown) | -7.93%
101 | CC(C)CN1CC(C)C(O)(c2ccccc2)CC1C (stereo not shown) | -3.72%
102 | CCN(CC)C(=O)C1CCCN(c2ncnc3c2c(-c2ccccc2)cn3-c2ccc(F)cc2)C1 (stereo not shown) | -0.0781%
103 | CCOc1ccc(N2CC(C(=O)Nc3cccc(OCC)c3)CC2=O)cc1 (stereo not shown) | 0.727%
